Assay results as given in the antibiotic and cytotoxicity screens of Wong et al. (2023).
The other results are listed elsewhere or left out.

Key:
HSkMC = human skeletal muscle cells; assay: cytotoxicity call (relative viability < 0.9); conditions: 10 µM
HepG2 = assay: cytotoxicity call (relative viability < 0.9); conditions: 10 µM
S. aureus RN4220 = assay: growth inhibition call (relative growth <= 0.2); conditions: 50 µM

Compound	cytotoxicity call (HSkMC)	cytotoxicity call (HepG2)	growth inhibition call (S. aureus RN4220)
COCC#Cc1ccc2c(c1)O[C@H](CN(C)S(=O)(=O)c1ccc(OC)cc1)[C@@H](C)CN([C@@H](C)CO)S2(=O)=O	inactive	inactive	inactive
Cc1ccc(C(N)=S)c(=O)[nH]1	inactive	inactive	inactive
C[C@@H]1CCCCO[C@@H](CN(C)C(=O)NC2CCCCC2)[C@@H](C)CN([C@H](C)CO)C(=O)c2cc(NC(=O)CCCCCC(=O)Nc3ccccc3N)ccc2O1	inactive	inactive	inactive
Cc1ccc(S(=O)(=O)N[C@H](C(=O)NCCn2cc(CCC(=O)NO)nn2)C(C)C)cc1	inactive	inactive	inactive
C[C@H]1CN([C@@H](C)CO)C(=O)c2cccc(NC(=O)C3CCOCC3)c2O[C@H]1CN(C)Cc1ccc(Oc2ccccc2)cc1	inactive	inactive	inactive
C[C@@H]1CN([C@@H](C)CO)C(=O)CCCn2cc(nn2)CO[C@@H]1CN(C)S(=O)(=O)c1ccc(-c2ccccc2)cc1	inactive	inactive	inactive
CC(C)C(=O)Nc1nnc2n1CCS2	inactive	inactive	inactive
CC(C)c1c(C(=O)Nc2ccccc2)c(-c2ccccc2)c(-c2ccc(F)cc2)n1CCC(O)CC(O)CC(=O)[O-].[Ca+2] (centres undefined)	inactive	inactive	inactive
CNC(=O)C[C@@H]1CC[C@@H]2[C@H](COC[C@@H](O)CN2C(=O)Nc2ccc3c(c2)OCO3)O1	inactive	inactive	inactive
NCC[C@H]1CC[C@H](NC(=O)Cc2ccncc2)[C@H](CO)O1	inactive	inactive	inactive
CC(C)NC(=O)Nc1ccc2c(c1)C(=O)N([C@@H](C)CO)C[C@H](C)[C@H](CN(C)S(=O)(=O)c1cccs1)O2	inactive	inactive	inactive
C[C@@H]1CN([C@@H](C)CO)C(=O)c2cc(NC(=O)Nc3ccc(C(F)(F)F)cc3)ccc2O[C@@H]1CN(C)C(=O)Nc1ccccc1	active	inactive	inactive
COc1ccc(NC(=O)N(C)C[C@H]2Oc3ccc(NS(=O)(=O)c4c(C)noc4C)cc3CC(=O)N([C@@H](C)CO)C[C@H]2C)cc1	inactive	inactive	inactive
C[C@H](CO)N1C[C@H](C)[C@@H](CN(C)S(=O)(=O)c2cccs2)OCCCC[C@H](C)Oc2ccc(NC(=O)Nc3cccc4ccccc34)cc2C1=O	inactive	inactive	inactive
CCCN(C)C[C@@H]1Oc2cc(C#Cc3ccc(OC)cc3)ccc2S(=O)(=O)N([C@@H](C)CO)C[C@@H]1C	inactive	inactive	inactive
OC[C@H]1O[C@@H](OCc2ccccc2)[C@H](O)[C@@H](O)[C@@H]1O	inactive	inactive	inactive
CC(C)N1C[C@@H](CN(C)Cc2ccc(Cl)c(Cl)c2)Oc2c(NC(=O)c3ccncc3)cccc2C1=O	inactive	inactive	inactive
NS(=O)(=O)C#Cc1ccccc1	active	active	inactive
C[C@@H]1CN([C@H](C)CO)C(=O)c2cccc(NS(=O)(=O)c3ccc(Cl)cc3)c2O[C@H]1CN(C)Cc1ccc(Oc2ccccc2)cc1	inactive	inactive	inactive
C[C@H]1CN([C@@H](C)CO)C(=O)c2cc(-c3cccc(C(=O)N(C)C)c3)cnc2O[C@H]1CN(C)S(=O)(=O)c1ccc(F)cc1	inactive	inactive	inactive
Cc1noc(C)c1NC(=O)Nc1ccc2c(c1)C(=O)N([C@@H](C)CO)C[C@@H](C)[C@@H](CN(C)C(=O)Nc1ccccc1)OCCCC[C@H](C)O2	inactive	inactive	inactive
COc1ccc(S(=O)(=O)Nc2ccc3c(c2)C(=O)N([C@@H](C)CO)C[C@H](C)[C@H](CN(C)S(=O)(=O)c2c(C)noc2C)O3)cc1	inactive	inactive	inactive

Compound	cytotoxicity call (HSkMC)	cytotoxicity call (HepG2)	growth inhibition call (S. aureus RN4220)
CC(C)CC#Cc1ccc2c(c1)O[C@H](CN(C)C(=O)c1ccncc1)[C@@H](C)CN([C@@H](C)CO)S2(=O)=O	inactive	inactive	inactive
NCc1ccccc1Sc1ccccc1CO	inactive	inactive	inactive
C[C@H](CO)N1C[C@H](C)[C@H](CN(C)S(=O)(=O)c2cn(C)cn2)Oc2ccc(NC(=O)CCN3CCOCC3)cc2C1=O	inactive	inactive	inactive
CO[C@H](CCO)[C@H](O)c1ccc(O)c(F)c1	inactive	inactive	inactive
O=C(C[C@H]1CC[C@@H]2[C@H](COC[C@@H](O)CN2S(=O)(=O)c2ccc(Cl)cc2)O1)N[C@@H]1CCN(Cc2ccccc2)C1	inactive	inactive	inactive
COc1ccc(C(=O)Nc2ccc(CN3C(=O)[C@@]4(O[C@@H](CC(=O)N5CCC[C@H]5CO)[C@H]([Si](C)(C)c5ccc(OC)cc5)[C@H]4C)c4ccccc43)cc2)cc1	inactive	inactive	inactive
Cc1cnc(NC(=O)C2=C(O)c3ccccc3S(=O)(=O)N2C)s1	inactive	inactive	inactive
COc1ccc(NC(=O)Nc2ccc3c(c2)C(=O)N([C@@H](C)CO)C[C@@H](C)[C@H](CN(C)S(=O)(=O)c2ccc(OC)cc2)OCCCC[C@H](C)O3)cc1	inactive	inactive	inactive
CN1CCOC(c2ccccc2)c2ccccc2C1 (centres undefined)	inactive	inactive	inactive
C[C@H](CO)N1C[C@H](C)[C@H](CN(C)Cc2ccccc2F)Oc2cc(C#CCN(C)C)ccc2S1(=O)=O	inactive	inactive	inactive
Cc1ccsc1C=CC1=NCCCN1C.O=C(O)CC(O)(CC(=O)O)C(=O)O	inactive	inactive	inactive
COc1ccc2cc(-c3cc(-c4cc(Cl)cc(Cl)c4)nn3[C@@H](C)c3ccc(C(=O)NCCC(=O)O)cc3)ccc2c1	active	inactive	inactive
COc1ccc(S(=O)(=O)N(C)C[C@@H]2Oc3cc(C#CC4CC4)ccc3S(=O)(=O)N([C@@H](C)CO)C[C@H]2C)cc1	inactive	inactive	inactive
CN1C(=O)[C@@]2(c3cc(Cl)ccc31)[C@H](C(=O)O)[C@H]1C(=O)O[C@H](c3ccccc3)[C@H](c3ccccc3)N1[C@@H]2c1ccc(F)cc1	inactive	inactive	active
Nc1cnc(Cl)cn1	inactive	inactive	inactive
O=C1c2ccc3c4c(ccc(c24)C(=O)N1CCCCO)C(=O)N(CCCCO)C3=O	active	active	inactive
O=C(C[C@H]1CC[C@@H]2[C@H](COC[C@H](O)CN2CC2CCOCC2)O1)N1CCOCC1	inactive	inactive	inactive
C[C@H]1CN([C@@H](C)CO)C(=O)c2cc(NS(=O)(=O)c3cn(C)cn3)ccc2O[C@H]1CN(C)Cc1ccc(C(=O)Nc2ccccc2N)cc1	inactive	inactive	inactive
C[C@@H]1CN([C@H](C)CO)C(=O)c2cc(NC(=O)C3CCCCC3)ccc2O[C@H]1CN(C)C(=O)Nc1ccc(C(F)(F)F)cc1	inactive	inactive	inactive
COc1ccc(NC(=O)Nc2ccc3c(c2)CC(=O)N([C@@H](C)CO)C[C@H](C)[C@H](CN(C)C(=O)Nc2cccc4ccccc24)O3)cc1	inactive	inactive	inactive
Cc1noc(C)c1NC(=O)N(C)C[C@H]1Oc2ccc(NS(=O)(=O)c3c(C)noc3C)cc2C(=O)N([C@H](C)CO)C[C@@H]1C	inactive	inactive	inactive
